Source: publication PMC3648529 (PLoS ONE, 2013)

Target: T1, human Flag-tagged soluble TWEAK (amino acids 106-249) (human, UniProt O43508 106-249)
T1 construct: TWEAK, human, soluble form, amino acids 106-249 of the 249 amino acid protein
T1 sequence (looked up): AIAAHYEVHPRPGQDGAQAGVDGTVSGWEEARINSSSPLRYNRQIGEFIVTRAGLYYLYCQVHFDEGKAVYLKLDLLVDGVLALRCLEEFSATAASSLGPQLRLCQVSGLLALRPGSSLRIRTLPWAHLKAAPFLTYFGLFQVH
Experiment: ELISA; receptor interaction ELISA (competition): human Fn14:Fc coated at 1 ug/ml in PBS; Flag-tagged soluble TWEAK 2.5 ng/ml pre-incubated 2 h at room temperature with different concentrations of anti-TWEAK antibody or hybridoma supernatant; detection with anti-FLAG-HRP
Details: both partners purified

B1: human Fn14:Fc (extracellular domain of human Fn14, […], fused to Fc portion of human IgG1) (Fc fusion)
chain: not shown
notes: signal peptide in the construct; Fn14 (TWEAK receptor), human, extracellular domain, […]; also called TWEAKR; TNFRSF12A
B1: binds.
